The inconclusive results got no clear call from the source; some entries with a clear call stand among them for comparison. No potency is given beside an inconclusive call; the fits are too rough. Activity calls are given as the source filed them. Calls come from the whole dose curve; as a rule, active = well fitted cell-killing curve with a large enough effect in the repeat runs; inconclusive = weak or mixed curves; inactive = flat fitted curve, though single readings scatter.
assay: qHTS assay to identify small molecule antagonists of the TGF-beta/Smad signaling pathway - cell viability counter screen (AID 1346824); settings: SBE-bla HEK293T viability, CellTiter-Glo luminescence; series mostly up to 76.8 µM; viability change, negative = cytotoxic: at the top concentration; note: nearly all actives have a fitted effect of over 50% in size
Outline: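 SBE-bla HEK 293T cells were plated overnight at 37 C, then given compounds in DMSO plus TGF-beta1 (added as 0.25 ng/mL solution) for 5 hr. After the bla read, CellTiter-Glo was added to the same wells and luminescence read after 30 min at room temperature.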
% is set by controls: 0 for no effect and ±100 for the full control effect; potency is the fitted concentration of half-maximal effect; tags give direction and shape of the fitted curve.

Compound	Potency	viability change, negative = cytotoxic
C=CC(=O)OCC	inconclusive [cytotoxic, single point]	
ClC(Cl)Br	inconclusive [cytotoxic, single point]	
C[N+](C)(C)CCOC(=O)C(O)(c1ccccc1)c1ccccc1		inactive: 5.36% [at 35.3 µM]
O=[N+]([O-])c1ccc(Cl)c(Cl)c1	inactive	
CCCCCCCCCCOC(=O)c1ccccc1C(=O)OCCCCCCCCCC		inactive: -17.5%
CCOP(=O)(OCC)Oc1cc(C)nc(C(C)C)n1	inconclusive [cytotoxic, single point]	

Reference: PubChem BioAssay (Tox21)
